For orientation: logP means the decadic logarithm of the partition coefficient of the neutral form, usually between octanol and water.

The procedure of this data set: The logP values were determined in accordance with EEC Directive 79/831 Annex V. A8 by HPLC (gradient method, acetonitrile/0.1% aqueous phosphoric acid)
As for `COC(=O)C(=COCF)c1ccccc1COc1ccn(-c2c(Cl)cc(C(F)(F)F)cc2Cl)n1` [Example 14], the logP came to 4.23.

In the case of `COC(=O)C(=COCF)c1ccccc1COc1ccn(-c2cccc(Cl)c2)n1` [Example 18], the log partition coefficient (logP) worked out at 3.92.

`COC(=O)C(=COCF)c1ccccc1COc1ccn(-c2cccc(C)c2)n1` [Example 16]: the logP turned out to be 3.77.

Regarding `COC(=O)C(=COCF)c1ccccc1COc1ccn(-c2ccc(Br)cc2)n1` [Example 6], the logP is 4.04.

Compound `COC(=O)C(=COCF)c1ccccc1COc1ccn(-c2cc(Cl)ccc2Cl)n1` [Example 20] came in with a logP of 4.11.

For `COC(=O)C(=COCF)c1ccccc1COc1ccn(-c2ccccc2Cl)n1` [Example 8], the lipophilicity (logP) worked out at 3.59.

`COC(=O)C(=COCF)c1ccccc1COc1ccn(-c2ccc(F)cc2)n1` [Example 3] displayed a log partition coefficient (logP) of 3.49.

Regarding `COC(=O)C(=COCF)c1ccccc1COc1ccn(-c2ccc(C#N)cc2)n1` [Example 9], the logP came out at 3.24.

Turning to `COC(=O)C(=COCF)c1ccccc1COc1ccn(-c2ccccc2)n1` [Example 13], the logP came out at 3.45.

In the case of `COC(=O)C(=COCF)c1ccccc1COc1ccn(-c2c(Cl)cccc2Cl)n1` [Example 15], the logP is given as 3.52.

Compound `COC(=O)C(=COCF)c1ccccc1COc1ccn(-c2cccc(Cl)c2Cl)n1` [Example 19] yielded a log partition coefficient (logP) of 3.95.

Turning to `COC(=O)C(=COCF)c1ccccc1COc1ccn(-c2ccccc2Br)n1` [Example 12], the logP was determined as 3.61.

`COC(=O)C(=COCF)c1ccccc1COc1ccn(-c2ccc(F)cc2F)n1` [Example 17]: the log partition coefficient (logP) worked out at 3.64.

For the compound `COC(=O)C(=COCF)c1ccccc1COc1ccn(-c2cccc(Br)c2)n1` [Example 5], the logP is recorded as 4.

Compound `COC(=O)C(=COCF)c1ccccc1COc1ccn(-c2ccc(C(C)(C)C)cc2)n1` [Example 2] displayed a logP of 4.63.

`COC(=O)C(=COCF)c1ccccc1COc1ccn(-c2ccc(Cl)cc2Cl)n1` [Example 11] registered a logP of 4.15.

`COC(=O)C(=COCF)c1ccccc1COc1ccn(-c2ccc(C(C)C)cc2)n1` [Example 4]: the log partition coefficient (logP) is 4.39.

In the case of `COC(=O)C(=COCF)c1ccccc1COc1ccn(-c2cc(Cl)cc(Cl)c2)n1` [Example 7], the logP is on record as 4.59.

Regarding `COC(=O)C(=COCF)c1ccccc1COc1ccn(-c2ccc(C)cc2)n1` [Example 10], the logP was 3.77.

Source of the values: patent US6562856B1, “Pyrazolyl benzyl ether deriviatives having a fluoromethoxy group and the use thereof as pesticides” (Bayer Aktiengesellschaft, priority 1999, dated 2003).
